Read counts are not given, so values of variants with three or more changes are uncertain.
B1: CPEB3 Ribozyme (parent)
chain: UAACAGGGGGCCACAGCAGAAGCGUUCACGUCGCAGCCCCUGUCAGAUUCUGGUGAAUCUGCGAAUUCUGCUGUAUAUCUC

Variants of: B1
Test: self-cleavage, relative activity (ratio to wild type); higher = more cleavage; in vitro, sequencing
Procedure, shortened: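 Libraries of CPEB3 self-cleaving ribozyme mutants came from rounds of error-prone PCR and carried barcodes, which DNA sequencing matched to variants. In vitro transcription used T7 RNA polymerase at 37°C for 5 hours, with a further 15 min in DNase I before EDTA stopped the reaction; the ribozymes cleaved during both steps. The RNA was reverse transcribed with template switching and sequenced on Illumina. Relative activity is the cleaved/total read fraction of a variant divided by that of the unmutated ribozyme, averaged over three batches with at least 5 reads.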

Row | Variant | self-cleavage
1 | UAACUGGGGGCCACAGCAGAGGCGUUCACGUCGCAGCCCCUGUCAGACUCUGGUGAAUCUGCGAAUCCUGCUGUAUAUCUC [A5U A21G U48C U67C] | 0.32
2 | UAACUGGGGGCCACAGCGGUAGCGUUCACGUCGCAGCCCAUGUCAGAAUCUGGUGAAUCUGCGAAUUCUGCUGUAUAUCUC [A5U A18G A20U C40A U48A] | 0.4
3 | UAACUGGGGGCCACUGCAGAAGCGUUCACGUCGCAGCCCCUGUCAGAUUCUGGUGAAUCUGCGAAUACUGCUGUAUAUCUC [A5U A15U U67A] | 0.36
4 | UAACUGGGGGCCACAGCAGUAGCGUUCACGUCGCAGCCCCUGCCAGAUUCUGGUGAAUCUGCGAACUCUGCUGUAUACCUC [A5U A20U U43C U66C U78C] | 0.13
5 | UAACUGGGGGCCACAGCUGAAGCGUUCACGUCGCAGCCCCAGUCAGAUUCUGGUGAAUCUGCGAGAUCUGCUGUAUAUCUC [A5U A18U U41A A65G U66A] | 0.16
6 | UAACUGGGGGCCACAGCAGAGGCGCUCACGUCGCAGCCCCUGUCAGAUUCUGGUGAAUCUGCGAAUUCUGCUGUAUAUCUC [A5U A21G U25C] | 0.53
7 | UAACUGGGGGCCACAGCGGAAGCGUUCACGUCGCAGCCCCUGUCAGAUUCUGGUGAAUCUGCGAAUUCUGCUGUAUAUCAC [A5U A18G U80A] | 1.19
8 | UAACUGGGGGCCACAGCAGAGGCGUCCACGUCGCAGCCCCUGUCAGAUUCUGGUGCAUCUGCGUAUUCUGCUGUAUAUCUC [A5U A21G U26C A56C A64U] | 0.17
9 | UAACUGGGGGCCACAGCGGAAGCGUUCACGUCGCAGCCCCUGUCAGAUUCUGGUGAAUCUGCGUAUUCUGCUGUAUAUCUC [A5U A18G A64U] | 0.25
10 | UAACUGGGGGCCACAGCGGAAGCGUUCACGUCGCAGCCCCUGUCAGAUUCUGGUGAAUCUGCGAAUCCUGCUGUAUAACUC [A5U A18G U67C U78A] | 0.18
11 | UAACUGGGGGCCACAGCUGUAGCGUUCACGUCGCAGCCCCUGUCAGAUUCUGGUGAAUCUGCGAACUCUGCUGUAUAUCUC [A5U A18U A20U U66C] | 0.26
12 | UAACUGGGGGCCACAGCCGAAGCGUUCACGUCGCAGCCACUGUCAGAUUCUGGUGAAUCCGCGAAUUCUGCUGUAUAUCCC [A5U A18C C39A U60C U80C] | 0.11
13 | UAACUGGGGGCCACAGCAGUAGCGUUCACGUCGCAGCCCCUGUCAGAAUCUGGUGAAUCUGCGGAUCCUGCUGUAUAUCUC [A5U A20U U48A A64G U67C] | 0.17
14 | UAACUGGGGGCCACAGCUGAAGCGUUCACGUCGCAGCCCCUGUCAGAUUCUGGUGAAUCUGCGAAUUCGGCCGUAUAUCUC [A5U A18U U69G U72C] | 1.09
15 | UAACUGGGGGCCACAGCGGAAGCGUUCACGUCGCAGCCCCUGCCAGAUUCUGGUGAAUCUGCGAAUUCUGCUGUAUAUCUC [A5U A18G U43C] | 0.23
16 | UAACUGGGGGCCACAGCUGAAGCGUUCACGUCGCAGCCCCUGGCAGAUCCUGGUGAAUCUGCGAAUUCUGCUGUAUAUCUC [A5U A18U U43G U49C] | 0.06
17 | UAACUGGGGGCCACAGCGGAAGCGUUCACGUCGCGGCCCCUGUCAGAUUCUGGUGAAUAUGCGAAUCCUGCUGUAUAUCUC [A5U A18G A35G C59A U67C] | 0.31

Row | Variant | self-cleavage
18 | UAACUGGGGGCCACAGCAGGAGCGUUCACGUCGCAGCCCCUGUCAGAAUCUGGUGAAUCUGCGAACUCUGCUGUAUAUCUC [A5U A20G U48A U66C] | 0.08
19 | UAACUGGGGGCCACAGCAGGAGCGCUCACGUCGCAGCCCCUGUCAGAUUCUGGUGAAUCUGCGAAUUCUGCUGUAUAUCUC [A5U A20G U25C] | 0.49
20 | UAACUGGGGGCCACAGCGGAAGCGUUCACGUCGCAGCCCCUGUCAGAUUCUGGUGAACCUGCGAAUUCCGCUGUAUAUCUC [A5U A18G U58C U69C] | 0.7
21 | UAACUGGGGGCCACAGCAGAGGCGUUCACGUCGCAGCCCCUGACAGAUUCUGGUGAAUCUGCGAAUUCCGCUGUAUAUCUC [A5U A21G U43A U69C] | 0.37
22 | UAACUGGGGGCCACUGCAGAAGCGUUUACGUCGCAGCCCCUGUCAGAUUCUGGUGAAUCUGCGAACCCUGCUGUAUAUCUC [A5U A15U C27U U66C U67C] | 0.19
23 | UAACUGGGGGCCACAGCAGAGGCGUUCACGUCGCAGCCCCUGUCAGAUUCUGGCGAAUCUGCGAAUUCUGCUGUAUAUCUC [A5U A21G U54C] | 0.82
24 | UAACUGGGGGCCACUGCAGAAGCGCUCACGUCGCAGCCCCUGUCAGAUUCUGGUGAAUCUGCGAAUUCUGCUGUAUAUCUC [A5U A15U U25C] | 0.36
25 | UAACUGGGGGCCACAGCAGGAGCGUUCACGUCGCAGCCCAUGUCAGAUUCUGGUGAAACUGCGGACUCUGCUGUAUAUCUC [A5U A20G C40A U58A A64G U66C] | 0.09
26 | UAACUGGGGGCCACUACAGAAGCGUUCGCGUCGCAGCCCCUGUCUGAUUCUGGUGAAUCUGCGAAUUCUGCUGUAUAUCUC [A5U A15U G16A A28G A45U] | 0.1
27 | UAACUGGGGGCCACAGCAGAGGCGUCCACGUCGCAGCCCAUGUCAGAUUCUGGUGAAUCAGCGAAUUCUGCUGUAUAUCUC [A5U A21G U26C C40A U60A] | 0.07
28 | UAACUGGGGGCCACAGCGGAAGCGUUCACGUCGCAGCCCCUGUCAGUCUCUGGUGAAUCUGCGAAUUCUGCUGUAUAUCUC [A5U A18G A47U U48C] | 0.13
29 | UAACUGGGGGCCACAGCAGUAGCGUACACGUCGCAGCCCCUGUCAGAUUCUGGUGAGUCUGCGAAGUCUGCUGUAUAUCCC [A5U A20U U26A A57G U66G U80C] | 0.14
30 | UAACUGGGGGCCACAGCUGAAGCGUUCACUUCGCAGCCCCUGUCAGAUUCUGGUGAAUCUGCGAAUUCUGCCGUAUAUCUC [A5U A18U G30U U72C] | 0.28
31 | UAACUGGGGGCCACAGCUGAAGCGUUCACGUGGCAGCCCCUGUCAGACUCUGGUGAAUCUGCGAAUUCUGCUGUAUAUCUC [A5U A18U C32G U48C] | 0.2
32 | UAACUGGGGGCCACAGCGGCAGCGUCCACGUCGCAGCCCCCGUCAGAUUCUGGUGAAUCUGCAAAUUCUGCUGUAUAUCUC [A5U A18G A20C U26C U41C G63A] | 0.49
33 | UAACUGGGGGCCACAGCGGAAGCGUUCACGUCGCAGCCCCCGUCAGAUUCUGGUGAAUCUGCGAAUCCUGCUGUAUAUCUC [A5U A18G U41C U67C] | 0.21
34 | UAACUGGGGGCCACAGCAGAGGCGUCCACGUCGCAGCCCCUGUCAGAUUCCGGUGAAUCUGCGAAUUCUGCUGUAUACCCC [A5U A21G U26C U51C U78C U80C] | 0.13

Source: the RNAGym collection of RNA variant scans (doi:10.1093/nar/gkz1192)
